# Assay results published in PubChem BioAssay AID686970 (National Center for Advancing Translational Sciences (NCATS), 2013).
# The whole screen tested about 360,000 compounds, of which about 6,000 (1.7%) were called active. Inconclusive means that the source gave no clear call. Such entries were picked first, then a sample of the others. Calls follow the shape of the dose curve; as a rule, active = well fitted cell-killing curve with a large enough effect; inconclusive = small, poorly fitted or top-dose-only effect, or effect the other way; inactive = flat fitted curve, though single readings scatter. Potencies of inconclusive entries are left out as doubtful fits.
# Assay: qHTS for induction of synthetic lethality in tumor cells producing 2HG: qHTS for the HT-1080-NT fibrosarcoma cell line;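 also: NT is the 2HG producing partner of a matched IDH1 knockdown line; nearly all actives have a fitted effect of over 55% in size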;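 as to activity, negative = less viability: 0% = DMSO-treated cells and -100% = media-only wells without cells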
# Conditions: HT-1080-NT fibrosarcoma viability, CellTiter-Glo ATP luminescence, 48 h; activity, negative = less viability: at 46.1 µM (top of the series) unless noted
# Method in brief: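 Compounds were tested in concentration-response format on HT-1080-NT cells for 48 hours at 37 degrees C. Cell viability came from CellTiter-Glo luminescence; curves were classified by r2, response magnitude and activity.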
# Potency is read from the fitted curve at half-maximal effect; tags tell the direction and shape of the fitted curve.
SMILES,"activity, negative = less viability",Potency
CCn1cc(/C=C(/C#N)S(=O)(=O)c2ccccc2)cn1,inactive: -1.76%,–
OCCN1CCN(c2ncnc3c2c(-c2ccccc2)cn3-c2ccc(Br)cc2)CC1,–,active: 16.4 µM
CCN(CC)CC#CC(C)OCOCC#CCOC (stereo not given),inconclusive: 5.51% [cytotoxic],–
CC(NC(=O)COc1ccc(-c2nnco2)cc1)c1ccc(Cl)cc1Cl (stereo not given),inactive: -0.495%,–
CCOC(=O)CSC1=C(C#N)C(c2ccc(C)s2)CC(=O)N1 (stereo not given),–,active: 0.708 µM
O=C(Nc1ccc(Cl)cc1)c1nc[nH]c1C(=O)NCc1ccccc1,–,"inconclusive [cytotoxic, single point]"
Cc1ccc(C)c(OCCC(=O)OCC(=O)N2CCN(S(=O)(=O)c3ccc(Cl)cc3)CC2)c1,inactive: -1.79%,–
Cn1c(SCC(=O)NC2CCCCCC2)nnc1-c1ccco1,–,"inconclusive [rising, single point]"
N=c1n(N)c2ccccc2n1CC(=O)c1ccc(Br)cc1,–,"inconclusive [cytotoxic, single point]"
CC(C)(C)c1ccc(C(=O)Cn2cnnc2C#N)cc1,–,"inconclusive [cytotoxic, single point]"
Cc1ccc(N=C2NC(=O)/C(=C/c3cccnc3)S2)cc1C,inactive: 0.154%,–
COCc1ccc(CN2CCC(C(=O)Nc3cccc(-c4cccc(Cl)c4)c3)CC2)o1,–,active: 14.6 µM
COc1ccc(C(=O)NC(=S)Nc2cccc(S(=O)(=O)N3CCOCC3)c2)cc1,–,active: 14.6 µM
C=CCNC(=S)Nc1cccc2ccccc12,–,"inconclusive [cytotoxic, single point]"
Nc1nonc1C(=O)NCCNCc1ccccc1OCc1ccccc1F,–,"inconclusive [cytotoxic, single point]"
CC(OC(=O)/C=C/c1ccccc1)C(=O)Nc1cccc(C#N)c1 (stereo not given),–,"inconclusive [cytotoxic, single point]"
Cc1[nH]c2ccc(-c3nnc(SCC(=O)c4ccc(F)cc4)o3)cc2c1C,–,"inconclusive [rising, partial curve, poor fit]"
COc1cccc(C(=O)Oc2ccccc2/C=C\C(=O)c2cc3ccccc3o2)c1,–,active: 18.4 µM
O=C(NC(c1ccc(-c2ccccc2)cc1)c1cnccn1)C1CCN(CCOc2ccc(Cl)cc2Cl)CC1 (stereo not given),–,active: 20.6 µM
NC(=S)N=Nc1c(O)[nH]c2c(Cl)cc(Cl)cc12,–,"inconclusive [cytotoxic, single point]"
O=C(c1cc(C2CC2)nc2ccc(Br)cc12)N1N=C(C(F)F)CC1(O)C(F)F (stereo not given),–,"inconclusive [cytotoxic, partial curve]"
Cc1ccc(-n2nc3c(c2NC(=O)c2c(-c4ccccc4Cl)noc2C)CSC3)cc1,–,"inconclusive [cytotoxic, single point]"
CCN(CC(=O)Nc1ccc(NC(C)=O)cc1)CC(=O)Nc1ccc(F)c(Cl)c1,–,"inconclusive [cytotoxic, partial curve, poor fit]"

SMILES,"activity, negative = less viability",Potency
O=C(N/N=C/c1cc(Cl)cc([N+](=O)[O-])c1O)c1cc(-c2ccccn2)nc2ccccc12,–,"inconclusive [cytotoxic, single point]"
COc1ccc(C2NC(=O)N(C)C3=C2C(=O)CC(C)(C)C3)cc1OC (stereo not given),inactive: -3.92%,–
COCCN1C(=O)C(=O)/C(=C(/O)c2ccc(S(=O)(=O)N3CCOCC3)cc2)C1c1cccc([N+](=O)[O-])c1 (stereo not given),–,"inconclusive [rising, single point]"
CCc1ccc(CNCc2ccc(OCC(O)CN(C)Cc3ccccc3)cc2)nc1 (stereo not given),–,"inconclusive [cytotoxic, single point]"
CCOC(=O)c1cc(CC)sc1NC(=O)C(c1ccccc1)c1ccccc1,inactive: -0.695%,–
OCC1OC(n2cnc3c(NCCc4ccccc4)ncnc32)C(O)C1O (stereo not given),–,active: 2.06 µM
Cc1ccc(OCCNCC(O)COc2ccccc2)cc1 (stereo not given),inactive: -5.61%,–
O=C(NCC1CCCO1)c1ccc(Oc2ccc([N+](=O)[O-])cc2)cc1 (stereo not given),inconclusive: -5.58%,–
OC(c1ccc(F)cc1)c1nc(/C=C/c2ccccc2)cs1 (stereo not given),–,"inconclusive [cytotoxic, single point]"
COc1cc(C(=O)C(=O)N2CCN(c3ccccc3)CC2)cc(OC)c1OC,–,"inconclusive [cytotoxic, partial curve]"
CCOc1ccc(CCN2C(=O)C(=O)N([C@@H](CC(C)C)CN3CCC[C@H]3CN3C(=O)C(=O)NC[C@@H]3Cc3ccc(O)cc3)C[C@@H]2CC(C)C)cc1,–,"inconclusive [cytotoxic, partial curve]"
Cc1ccc(C(=S)NCS(=O)(=O)c2ccc(C)cc2)cc1,–,"inconclusive [cytotoxic, single point]"
CC(C)NC(=O)N(C)C[C@@H]1OCc2cnnn2CCCC(=O)N([C@H](C)CO)C[C@@H]1C,inactive: 6.46%,–
CC(=O)OCC(=O)C1(O)CCC2C3CCC4=CC(=O)CCC4(C)C3(F)C(O)CC21C (stereo not given),inactive: 19.4%,–
CCCCNC(=O)c1[nH]c(C2CCNCC2)nc1-c1cccc(C(F)(F)F)c1,–,"inconclusive [cytotoxic, single point]"
O=[N+]([O-])c1cc2ncccc2c2ncccc12,–,"inconclusive [cytotoxic, single point]"
C/C(N)=C(/C#N)C(=O)CSc1nc(-c2ccccc2)c(-c2ccccc2)o1,–,"inconclusive [cytotoxic, single point]"
CCOc1ccccc1C1CC(=O)NC2=C1C(=O)CCC2 (stereo not given),–,"inconclusive [cytotoxic, partial curve]"
COc1ccc(C(=O)Nc2ccc(C)cn2)c(OC)c1,inconclusive: 3.14%,–
O=C(/C=C/c1ccccc1)CC(O)(c1ccccc1)C(F)(F)C(F)F (stereo not given),–,active: 15.8 µM
CC(C)c1ccc(C2(C)NC(=O)N(CC(=O)N3CCN(C(=O)c4cccs4)CC3)C2=O)cc1 (stereo not given),inactive: -4.34%,–
NC(c1ccccc1)c1csc(Nc2cc(Oc3ccccc3)ncn2)n1 (stereo not given),–,"inconclusive [cytotoxic, single point]"
